Experimental data as given in US20190112349A1.
Where two headings read alike, the source gives them in different places.

How the values were obtained:
Experiment in all cases: cell-based or functional assay
ACTR variant 26 = target: ACTR variant 26
ACTR variant 94 = target: ACTR variant 94
ACTR variant 128 = target: ACTR variant 128
ACTR variant 112 [1] = target: ACTR variant 112
ACTR variant 130 = target: ACTR variant 130
ACTR variant 113 [2] = target: ACTR variant 113
ACTR variant 93 = target: ACTR variant 93
ACTR variant 92 = target: ACTR variant 92
ACTR variant 126 = target: ACTR variant 126
ACTR variant 129 = target: ACTR variant 129
ACTR variant 114 [3] = target: ACTR variant 114
ACTR variant 115 [4] = target: ACTR variant 115
ACTR variant 102 = target: ACTR variant 102
ACTR variant 127 = target: ACTR variant 127
ACTR variant 103 [5] = target: ACTR variant 103
ACTR variant 116 [6] = target: ACTR variant 116
ACTR variant 110 = target: ACTR variant 110
ACTR variant 112 [7] = target: ACTR variant 112; remark: listed apart in the source
ACTR variant 113 [8] = target: ACTR variant 113; remark: listed apart in the source
ACTR variant 131 = target: ACTR variant 131
ACTR variant 114 [9] = target: ACTR variant 114; remark: listed apart in the source
ACTR variant 115 [10] = target: ACTR variant 115; remark: listed apart in the source
ACTR variant 103 [11] = target: ACTR variant 103; remark: listed apart in the source
ACTR variant 116 [12] = target: ACTR variant 116; remark: listed apart in the source

Sequence of ACTR variant 114 (chain, as listed by the source mutant limits assumed): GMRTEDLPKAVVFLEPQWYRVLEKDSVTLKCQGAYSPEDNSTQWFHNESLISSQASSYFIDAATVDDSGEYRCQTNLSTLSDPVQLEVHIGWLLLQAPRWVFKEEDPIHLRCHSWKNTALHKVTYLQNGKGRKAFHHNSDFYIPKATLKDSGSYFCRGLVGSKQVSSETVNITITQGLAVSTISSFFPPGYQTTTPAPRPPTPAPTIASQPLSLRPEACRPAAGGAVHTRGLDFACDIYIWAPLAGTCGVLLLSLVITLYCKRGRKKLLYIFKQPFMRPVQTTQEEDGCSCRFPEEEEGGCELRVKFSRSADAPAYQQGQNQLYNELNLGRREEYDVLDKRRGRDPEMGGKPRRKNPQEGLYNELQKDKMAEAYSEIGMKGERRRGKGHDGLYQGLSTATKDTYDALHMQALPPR
Sequence of ACTR variant 112 (chain, as listed by the source mutant limits assumed): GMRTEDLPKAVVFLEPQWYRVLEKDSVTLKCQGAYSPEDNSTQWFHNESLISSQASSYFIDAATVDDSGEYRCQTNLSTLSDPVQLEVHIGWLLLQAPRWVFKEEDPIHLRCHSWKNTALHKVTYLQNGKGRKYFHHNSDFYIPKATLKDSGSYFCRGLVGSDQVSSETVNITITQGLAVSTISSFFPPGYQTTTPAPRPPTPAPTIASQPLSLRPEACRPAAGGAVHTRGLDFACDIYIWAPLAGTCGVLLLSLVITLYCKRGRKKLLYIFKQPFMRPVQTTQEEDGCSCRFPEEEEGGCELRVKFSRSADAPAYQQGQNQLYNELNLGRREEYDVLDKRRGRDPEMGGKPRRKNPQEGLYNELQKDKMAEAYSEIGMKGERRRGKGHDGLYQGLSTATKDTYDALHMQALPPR
Sequence of ACTR variant 115 (chain, as listed by the source mutant limits assumed): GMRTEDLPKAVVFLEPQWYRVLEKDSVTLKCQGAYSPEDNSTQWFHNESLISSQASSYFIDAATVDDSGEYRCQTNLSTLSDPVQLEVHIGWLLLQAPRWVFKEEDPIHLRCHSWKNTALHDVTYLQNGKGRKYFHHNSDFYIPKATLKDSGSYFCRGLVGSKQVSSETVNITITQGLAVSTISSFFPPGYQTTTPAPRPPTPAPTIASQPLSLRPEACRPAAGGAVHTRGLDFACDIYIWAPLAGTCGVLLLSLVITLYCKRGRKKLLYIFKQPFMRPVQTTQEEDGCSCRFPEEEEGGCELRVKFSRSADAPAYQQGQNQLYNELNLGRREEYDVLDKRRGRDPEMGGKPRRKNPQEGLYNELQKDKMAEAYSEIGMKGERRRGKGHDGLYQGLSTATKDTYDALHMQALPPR
Sequence of ACTR variant 26 (chain, as listed by the source mutant limits assumed): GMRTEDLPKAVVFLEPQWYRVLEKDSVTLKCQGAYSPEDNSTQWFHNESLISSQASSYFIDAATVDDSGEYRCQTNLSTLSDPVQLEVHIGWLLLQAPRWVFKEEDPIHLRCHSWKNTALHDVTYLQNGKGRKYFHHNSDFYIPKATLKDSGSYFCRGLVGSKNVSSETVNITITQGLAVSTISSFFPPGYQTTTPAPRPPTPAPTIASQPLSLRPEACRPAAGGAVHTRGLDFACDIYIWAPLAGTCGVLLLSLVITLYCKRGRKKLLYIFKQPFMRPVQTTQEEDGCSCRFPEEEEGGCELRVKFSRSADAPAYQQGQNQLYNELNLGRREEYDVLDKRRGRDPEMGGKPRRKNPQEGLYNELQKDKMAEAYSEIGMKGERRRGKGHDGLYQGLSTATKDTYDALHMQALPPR
Sequence of ACTR variant 131 (chain, as listed by the source mutant limits assumed): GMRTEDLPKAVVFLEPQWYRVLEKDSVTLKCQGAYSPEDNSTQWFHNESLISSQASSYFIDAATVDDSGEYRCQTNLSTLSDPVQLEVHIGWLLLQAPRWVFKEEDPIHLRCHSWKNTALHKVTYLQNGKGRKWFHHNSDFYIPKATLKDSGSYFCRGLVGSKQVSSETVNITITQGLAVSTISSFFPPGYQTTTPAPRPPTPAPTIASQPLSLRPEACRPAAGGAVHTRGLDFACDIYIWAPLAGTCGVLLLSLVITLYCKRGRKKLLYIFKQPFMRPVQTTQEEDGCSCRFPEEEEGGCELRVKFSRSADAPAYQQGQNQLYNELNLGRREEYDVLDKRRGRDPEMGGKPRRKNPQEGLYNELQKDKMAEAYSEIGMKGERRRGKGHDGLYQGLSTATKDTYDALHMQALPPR
Sequence of ACTR variant 102 (chain, as listed by the source mutant limits assumed): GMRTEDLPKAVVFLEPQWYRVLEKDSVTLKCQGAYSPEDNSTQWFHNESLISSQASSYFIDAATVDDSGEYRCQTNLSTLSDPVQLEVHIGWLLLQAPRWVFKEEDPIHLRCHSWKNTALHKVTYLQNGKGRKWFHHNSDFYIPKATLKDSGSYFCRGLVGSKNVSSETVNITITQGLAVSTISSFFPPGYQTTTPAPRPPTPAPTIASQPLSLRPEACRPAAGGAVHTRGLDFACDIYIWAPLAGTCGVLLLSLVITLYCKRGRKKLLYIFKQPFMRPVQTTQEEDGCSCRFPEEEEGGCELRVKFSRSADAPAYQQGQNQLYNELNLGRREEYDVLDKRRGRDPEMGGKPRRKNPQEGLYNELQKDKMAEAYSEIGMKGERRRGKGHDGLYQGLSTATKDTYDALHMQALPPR
Sequence of ACTR variant 113 (chain, as listed by the source mutant limits assumed): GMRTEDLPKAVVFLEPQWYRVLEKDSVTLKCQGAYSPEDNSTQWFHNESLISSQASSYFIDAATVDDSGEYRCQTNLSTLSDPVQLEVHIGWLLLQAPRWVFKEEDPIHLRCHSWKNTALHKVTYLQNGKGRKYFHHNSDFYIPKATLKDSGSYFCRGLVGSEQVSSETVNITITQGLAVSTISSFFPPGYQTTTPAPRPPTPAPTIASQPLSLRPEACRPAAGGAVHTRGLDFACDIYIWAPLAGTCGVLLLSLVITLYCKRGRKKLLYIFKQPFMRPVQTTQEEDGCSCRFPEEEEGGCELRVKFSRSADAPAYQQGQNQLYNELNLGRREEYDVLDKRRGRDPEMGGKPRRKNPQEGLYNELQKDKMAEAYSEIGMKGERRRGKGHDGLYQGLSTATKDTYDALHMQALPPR
Sequence of ACTR variant 103 (chain, as listed by the source mutant limits assumed): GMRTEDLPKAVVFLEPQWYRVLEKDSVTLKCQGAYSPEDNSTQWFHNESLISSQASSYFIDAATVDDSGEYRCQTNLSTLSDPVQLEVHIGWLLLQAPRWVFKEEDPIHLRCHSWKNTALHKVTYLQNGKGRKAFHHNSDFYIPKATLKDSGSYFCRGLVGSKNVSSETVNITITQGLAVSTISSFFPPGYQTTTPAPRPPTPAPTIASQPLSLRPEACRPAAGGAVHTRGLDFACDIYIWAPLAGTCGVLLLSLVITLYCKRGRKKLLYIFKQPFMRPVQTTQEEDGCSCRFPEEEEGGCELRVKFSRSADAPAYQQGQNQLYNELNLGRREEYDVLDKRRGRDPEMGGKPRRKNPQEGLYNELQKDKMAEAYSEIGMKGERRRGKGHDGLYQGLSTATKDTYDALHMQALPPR
Sequence of ACTR variant 116 (chain, as listed by the source mutant limits assumed): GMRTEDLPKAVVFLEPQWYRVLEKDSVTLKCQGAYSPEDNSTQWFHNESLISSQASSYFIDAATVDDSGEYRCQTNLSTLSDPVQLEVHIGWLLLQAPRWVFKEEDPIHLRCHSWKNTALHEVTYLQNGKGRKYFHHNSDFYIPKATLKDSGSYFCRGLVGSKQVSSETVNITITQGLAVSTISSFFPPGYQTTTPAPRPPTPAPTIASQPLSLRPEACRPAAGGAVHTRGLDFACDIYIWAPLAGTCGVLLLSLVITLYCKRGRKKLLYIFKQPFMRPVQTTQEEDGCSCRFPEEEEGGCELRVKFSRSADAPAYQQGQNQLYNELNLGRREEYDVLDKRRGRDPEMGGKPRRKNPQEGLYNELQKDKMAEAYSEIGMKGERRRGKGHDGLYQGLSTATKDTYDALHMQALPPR
Sequence of ACTR variant 94 (chain, as listed by the source mutant limits assumed): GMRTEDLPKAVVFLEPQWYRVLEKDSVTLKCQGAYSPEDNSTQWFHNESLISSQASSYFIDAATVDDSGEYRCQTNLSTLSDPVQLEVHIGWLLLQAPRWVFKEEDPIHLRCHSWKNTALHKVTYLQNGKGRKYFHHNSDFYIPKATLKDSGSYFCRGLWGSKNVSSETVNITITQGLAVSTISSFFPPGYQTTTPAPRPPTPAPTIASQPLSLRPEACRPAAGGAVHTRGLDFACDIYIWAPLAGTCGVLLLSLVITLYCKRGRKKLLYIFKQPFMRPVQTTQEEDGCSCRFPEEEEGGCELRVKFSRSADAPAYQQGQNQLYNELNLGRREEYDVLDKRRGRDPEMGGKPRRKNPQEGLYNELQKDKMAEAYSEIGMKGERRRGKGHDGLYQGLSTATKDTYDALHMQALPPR
Sequence of ACTR variant 128 (chain, as listed by the source mutant limits assumed): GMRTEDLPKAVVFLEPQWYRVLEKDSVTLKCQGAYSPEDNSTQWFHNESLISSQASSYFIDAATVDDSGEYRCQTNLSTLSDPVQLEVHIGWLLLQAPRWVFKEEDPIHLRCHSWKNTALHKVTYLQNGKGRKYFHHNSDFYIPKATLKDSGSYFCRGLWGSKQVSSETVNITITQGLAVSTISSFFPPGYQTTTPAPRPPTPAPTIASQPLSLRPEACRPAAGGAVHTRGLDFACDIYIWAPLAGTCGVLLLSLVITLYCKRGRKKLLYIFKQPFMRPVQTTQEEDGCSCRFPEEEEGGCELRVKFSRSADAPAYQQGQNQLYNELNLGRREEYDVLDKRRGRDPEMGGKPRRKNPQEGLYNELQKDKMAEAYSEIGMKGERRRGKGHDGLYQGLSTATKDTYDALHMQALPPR

Jurkat NFAT luciferase EC50 (ACTR variant 26): 4.79 nM
Jurkat NFAT luciferase EC50 (virally transduced cells) (ACTR variant 26): 2.8 nM
Jurkat NFAT luciferase maximal luminescence (curve fit) (luminescence units) (ACTR variant 26): 39200
IL2 release EC50 (ACTR variant 94): 0.92 nM
Jurkat NFAT luciferase EC50 (ACTR variant 94): 2.14 nM
Jurkat NFAT luciferase maximal luminescence (curve fit) (luminescence units) (ACTR variant 94): 68000
maximum IL2 (curve fit) (ACTR variant 94): 2080 pg/mL
Jurkat NFAT luciferase EC50 (ACTR variant 128): 0.94 nM
Jurkat NFAT luciferase maximal luminescence (curve fit) (luminescence units) (ACTR variant 128): 113000
luminescence at highest antibody concentration tested (EC50 NA) (luminescence units) (ACTR variant 112 [1]): 19800
Jurkat NFAT luciferase EC50 (ACTR variant 130): 0.55 nM
Jurkat NFAT luciferase maximal luminescence (curve fit) (luminescence units) (ACTR variant 130): 70600
luminescence at highest antibody concentration tested (EC50 NA) (luminescence units) (ACTR variant 113 [2]): 14200
Jurkat NFAT luciferase EC50 (ACTR variant 93): 7.96 nM
Jurkat NFAT luciferase maximal luminescence (curve fit) (luminescence units) (ACTR variant 93): 13100
luminescence at highest antibody concentration tested (EC50 NA) (luminescence units) (ACTR variant 92): 5440
luminescence at highest antibody concentration tested (EC50 NA) (luminescence units) (ACTR variant 126): 11600
Jurkat NFAT luciferase EC50 (ACTR variant 129): 3.38 nM
Jurkat NFAT luciferase maximal luminescence (curve fit) (luminescence units) (ACTR variant 129): 77800
Jurkat NFAT luciferase EC50 (ACTR variant 114 [3]): 3.3 nM
Jurkat NFAT luciferase maximal luminescence (curve fit) (luminescence units) (ACTR variant 114 [3]): 151000
Jurkat NFAT luciferase EC50 (ACTR variant 115 [4]): 2.21 nM
Jurkat NFAT luciferase maximal luminescence (curve fit) (luminescence units) (ACTR variant 115 [4]): 113000
IL2 release EC50 (ACTR variant 102): 0.25 nM
Jurkat NFAT luciferase EC50 (ACTR variant 102): 0.29 nM
Jurkat NFAT luciferase maximal luminescence (curve fit) (luminescence units) (ACTR variant 102): 114000
maximum IL2 (curve fit) (ACTR variant 102): 2600 pg/mL
Jurkat NFAT luciferase EC50 (ACTR variant 127): 1.69 nM
Jurkat NFAT luciferase maximal luminescence (curve fit) (luminescence units) (ACTR variant 127): 106000
IL2 release EC50 (ACTR variant 103 [5]): 1.29 nM
Jurkat NFAT luciferase EC50 (ACTR variant 103 [5]): 3.65 nM
Jurkat NFAT luciferase maximal luminescence (curve fit) (luminescence units) (ACTR variant 103 [5]): 66100
maximum IL2 (curve fit) (ACTR variant 103 [5]): 572 pg/mL
Jurkat NFAT luciferase EC50 (ACTR variant 116 [6]): 6.96 nM
Jurkat NFAT luciferase maximal luminescence (curve fit) (luminescence units) (ACTR variant 116 [6]): 84900
luminescence at highest antibody concentration tested (EC50 NA) (luminescence units) (ACTR variant 110): 1200
IFNγ release EC50 (ACTR variant 112 [7]): 4.62 nM
IL2 release EC50 (ACTR variant 112 [7]): 8.6 nM
maximum IFNγ (curve fit) (ACTR variant 112 [7]): 60300 pg/mL
maximum IL2 (curve fit) (ACTR variant 112 [7]): 762 pg/mL
IFNγ release EC50 (ACTR variant 113 [8]): 5.15 nM
IL2 release EC50 (ACTR variant 113 [8]): 7.92 nM
maximum IFNγ (curve fit) (ACTR variant 113 [8]): 18600 pg/mL
maximum IL2 (curve fit) (ACTR variant 113 [8]): 417 pg/mL
IFNγ release EC50 (ACTR variant 131): 0.45 nM
IL2 release EC50 (ACTR variant 131): 0.91 nM
maximum IFNγ (curve fit) (ACTR variant 131): 104000 pg/mL
maximum IL2 (curve fit) (ACTR variant 131): 2040 pg/mL
IFNγ release EC50 (ACTR variant 114 [9]): 1.37 nM
IL2 release EC50 (ACTR variant 114 [9]): 1.94 nM
maximum IFNγ (curve fit) (ACTR variant 114 [9]): 117000 pg/mL
maximum IL2 (curve fit) (ACTR variant 114 [9]): 1630 pg/mL
IFNγ release EC50 (ACTR variant 115 [10]): 1.57 nM
IL2 release EC50 (ACTR variant 115 [10]): 1.89 nM
maximum IFNγ (curve fit) (ACTR variant 115 [10]): 92600 pg/mL
maximum IL2 (curve fit) (ACTR variant 115 [10]): 1970 pg/mL
IFNγ release EC50 (ACTR variant 103 [11]): 4.48 nM
IL2 release EC50 (ACTR variant 103 [11]): 9.32 nM
maximum IFNγ (curve fit) (ACTR variant 103 [11]): 86300 pg/mL
maximum IL2 (curve fit) (ACTR variant 103 [11]): 1550 pg/mL
IFNγ release EC50 (ACTR variant 116 [12]): 4 nM
IL2 release EC50 (ACTR variant 116 [12]): 5.79 nM
maximum IFNγ (curve fit) (ACTR variant 116 [12]): 47900 pg/mL
maximum IL2 (curve fit) (ACTR variant 116 [12]): 764 pg/mL
B1: rituximab with heavy chain variant 176 (SEQ ID NO: 29) (antibody, part only; not given: rituximab light chain, part only)
heavy: QVQLQQPGAELVKPGASVKMSCKASGYTFTSYNMHWVKQTPGRGLEWIGAIYPGNGDTSYNQKFKGKATLTADKSSSTAYMQLSSLTSEDSAVYYCARSTYYGGDWYFNVWGAGTTVTVSA[not shown - human IgG1 constant region with changes]
